Data as given in PubChem BioAssay AID485281 (National Center for Advancing Translational Sciences (NCATS), 2010).
Several values for one entry are separate records, joined by “and”; a condition that tells them apart may be missing. Identical values can stand only once. Screen size: about 350,000 compounds; about 260 (0.074%) were called active. The inconclusive results got no clear call from the source; some entries with a clear call stand among them for comparison. Calls follow the shape of the dose curve; as a rule, active = well fitted inhibition curve with a large enough effect; inconclusive = small, poorly fitted or top-dose-only effect; inactive = no such curve, though single readings can be large or run the other way. A potency beside an inconclusive call is a rough fit, not a confirmed value.

What follows are compounds tested against Ferritin light chain (Equus caballus) (UniProt P02791) (assay: qHTS Assay for Identification of Novel General Anesthetics). Settings: apoferritin/1-aminoanthracene competitive binding, fluorescence; series mostly up to 77.5 µM.
Chain of UniProt P02791 (P02791 whole entry, looked up): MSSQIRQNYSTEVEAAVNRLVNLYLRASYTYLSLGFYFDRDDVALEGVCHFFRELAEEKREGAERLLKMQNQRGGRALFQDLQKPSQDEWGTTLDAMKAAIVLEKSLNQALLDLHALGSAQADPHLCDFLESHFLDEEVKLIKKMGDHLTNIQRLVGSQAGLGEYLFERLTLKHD
How it was run: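 10 uM apoferritin + 50% sat. 1-AMA, PBS; cpd 10 min RT; Ex380/Em535 endpoint; normalized to free probe vs complex; 4-param Hill fit; propofol titration as pos. ctrl.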
Also: nearly all actives have a fitted effect of over 20% in size.
Potency is read from the fitted curve at half-maximal effect; tags tell the direction and shape of the fitted curve.

SMILES | Potency
COc1ccc(C(=O)N2CCc3cc(OC)c(OC)cc3C2c2cccc([N+](=O)[O-])c2)cc1OC (centres undefined) | inconclusive: 44.7 µM [inhibitor, single point]
CCCc1cc(C(=O)Nc2ccc(OC)cc2[N+](=O)[O-])cs1 | inconclusive: 50.1 µM [inhibitor, single point]
CCOC(=O)c1c(NC(C)=O)c2c3c(sc2n1Cc1nc(-c2ccc(Cl)cc2)oc1C)CCCC3 | inactive
O=C(/C=C/c1ccc(Br)o1)OCc1ccccc1 | inconclusive: 15.8 µM [inhibitor, partial curve]
CCn1c(COc2ccccc2)nnc1SCC(=O)c1cccc([N+](=O)[O-])c1 | inconclusive: 31.6 µM [inhibitor, partial curve]
OC(c1cc(C(F)(F)F)nc2c(C(F)(F)F)cccc12)C1CCCCN1 (centres undefined) | inactive
COc1cccc(N=Nc2c(N)[nH][nH]c2=O)c1 | inconclusive: 39.8 µM [inhibitor, single point]
CCCn1c(C2CCCN2c2nc(-c3cccc(Br)c3)cs2)nc2ccccc21 (centres undefined) | inactive
CC(=O)C1=C(C)N(Cc2ccccc2)C(=O)N[C@@H]1c1cccc(C(F)(F)F)c1 | inconclusive: 28.2 µM [inhibitor, single point]
COC(=O)CCN(Cc1ccco1)S(=O)(=O)c1ccc(F)cc1Br | inconclusive: 28.2 µM [inhibitor, single point]
O=C(Cc1ccc(Cl)cc1)Nc1ccc(N2CCN(C(=O)c3ccco3)CC2)c(Cl)c1 | inconclusive: 100 µM [inhibitor, partial curve, poor fit]
O=C(NC(=O)N1CCCCCC1)c1ccc(Cl)cc1 | inactive
CC1CCCC(NS(=O)(=O)c2cccc3nsnc23)C1C (centres undefined) | inconclusive: 50.1 µM [inhibitor, partial curve]
CCCn1nnnc1-c1cc(Cl)cc(Cl)c1 | inconclusive: 35.5 µM [inhibitor, partial curve]
O=C(c1cccnc1)N1C2C=CC(C2)C1(C(F)(F)F)C(F)(F)F (centres undefined) | inconclusive: 31.6 µM [inhibitor, partial curve]
Cc1ccc(-c2ccc(=O)n(Cc3ccc(F)cc3)n2)cc1 | inconclusive: 35.5 µM [inhibitor, partial curve]
O=C(Nc1cccc([N+](=O)[O-])c1)C(=O)N1CCCCC1 | inactive
Cc1cccc(-n2nnnc2SCn2nnc3ccccc3c2=O)c1 | inconclusive: 25.1 µM [inhibitor, partial curve]
Cc1nc2ccc(C(=O)OCc3nnc(-c4ccccc4)o3)cc2nc1C | inconclusive: 35.5 µM [inhibitor, single point]
N#CC1=C(N)N(c2ccc(Cl)c(Cl)c2)C(=O)C1 | inconclusive: 20 µM [inhibitor, partial curve]
CC(NC(=O)c1cccc(S(=O)(=O)N2CCN(C)CC2)c1)C1CC2CCC1C2 (centres undefined) | inconclusive: 31.6 µM [inhibitor, partial curve]
Cn1c(N)c(C(=O)COC(=O)c2cc(C3CC3)nc3ccccc23)c(=O)n(C)c1=O | inconclusive: 44.7 µM [inhibitor, single point]
CC1CCN(c2ccc(NC(=O)c3cccnc3Cl)cc2)CC1 | inactive

SMILES | Potency
CC(C)(CNC(=S)NCCc1ccccc1)CNC(=S)NCCc1ccccc1 | inactive
c1ccc(C[n+]2cccc3c4ccccc4ccc32)cc1 | inactive
O=C(COC(=O)C12CC3CC(CC(C3)C1)C2)Nc1ccc(OC(F)F)cc1 | inconclusive: 11.2 µM [inhibitor, partial curve]
CCn1cc(S(=O)(=O)c2ccc(OC)cc2)c(=O)c2cc(F)c(N3CCC(C)CC3)cc21 | inconclusive: 7.94 µM [inhibitor, single point]
COc1ccc(C(C)(C)C)cc1NC(=O)c1ccc2ncsc2c1 | inconclusive: 50.1 µM [inhibitor, single point]
N/C(=N\OC(=O)/C=C/c1ccccc1)c1ccc(Cl)cc1 | inactive
COCCNC(=O)CSc1c2c(nc3cc(Cl)ccc13)CCCC2 | inactive
Cc1cccc(C(=O)NNC(=O)c2ccccc2O)c1 | inconclusive: 56.2 µM [inhibitor, single point]
Cc1cc(C)c2c(c1)-c1c(ssc1=S)C(C)(C)N2C(=O)CSc1nncn1C | inconclusive: 35.5 µM [inhibitor, partial curve]
Cc1cc(C)n(Cc2ccc(F)cc2)c(=O)c1C#N | inconclusive: 15.8 µM [inhibitor, partial curve]
OCCN=c1cc(-c2ccccc2)oc2ccc(Cl)cc12 | inconclusive: 35.5 µM [inhibitor, partial curve]
Cc1ccccc1Cn1nc(C)c(NC(=O)c2noc3c2CC(C(C)(C)C)CC3)c1C (centres undefined) | inconclusive: 10 µM [inhibitor, partial curve]
Cc1cccc(-n2ncc3c2CCCC3NC(=O)Cc2c(C)noc2C)c1C (centres undefined) | inactive
c1ccc(Nc2nc(-c3ccccn3)cs2)cc1 | inconclusive: 31.6 µM [inhibitor, partial curve]
CCNC(=O)C(=O)N/N=C/c1cc([N+](=O)[O-])ccc1O | inactive
Cc1ccc(N2CC(C(=O)Nc3nnc(C)s3)CC2=O)cc1 (centres undefined) | inactive
CCn1c(-c2cc(Cl)ccc2OC)n[nH]c1=S | inactive
O=C(COC(=O)CCC(=O)c1cccs1)Nc1ccc(S(=O)(=O)N2CCOCC2)cc1 | inconclusive: 20 µM [inhibitor, partial curve]
N/C(=N\OC(=O)c1cccc(Cl)c1)c1ccncc1 | inactive
O=C(c1cccs1)N(Cc1cccnc1)c1nc2ccc(F)cc2s1 | inconclusive: 50.1 µM [inhibitor, partial curve, poor fit]
COc1ccc(N2CCN(C(=O)CCS(=O)(=O)c3ccc(OC)cc3)CC2)cc1 | inactive
Cc1cccc(CNc2ncncc2-c2cccc(NS(C)(=O)=O)c2)c1 | inactive
CCCCC1(C)NC(=O)N(CC(=O)Nc2ccc(S(=O)(=O)N3CCOCC3)cc2)C1=O (centres undefined) | inconclusive: 39.8 µM [inhibitor, partial curve]

SMILES | Potency
CCOc1cc(C2C(C(=O)OC)=C(C)NC3=C2C(=O)c2ccccc23)c(Br)cc1OC (centres undefined) | inconclusive: 5.62 µM [inhibitor, partial curve]
CC(C)c1ccc(S(=O)(=O)N2CCN(C(=S)NCc3ccco3)CC2)cc1 | inconclusive: 17.8 µM [inhibitor, partial curve]
Cc1coc2c1C(=O)C(=O)c1c-2ccc2c1CCCC2(C)C | inconclusive: 28.2 µM [inhibitor, partial curve] and inconclusive: 8.91 µM [inhibitor, partial curve]
Cc1cc(OCC(O)CN2CCc3ccccc3C2)ccc1Cl (centres undefined) | inconclusive: 35.5 µM [inhibitor, partial curve]
Cc1ccc(C(=O)Cn2cnc3ccccc3c2=O)cc1C | inconclusive: 39.8 µM [inhibitor, partial curve]
O=C(CSCc1ccccc1Cl)NNC(=S)Nc1ccccc1 | inconclusive: 28.2 µM [inhibitor, single point]
Cn1c(/N=C/c2c(O)ccc3ccccc23)nc2ccccc21 | inconclusive: 35.5 µM [inhibitor, partial curve]
CCCCN(CCCNC(=O)CN1N=C(c2ccccc2)CCC1=O)c1ccccc1 | inconclusive: 28.2 µM [inhibitor, partial curve]
O=C(COc1ccccc1Cl)Nc1nc2c(s1)CCCC2 | inactive
COc1ccc(CCN(Cc2ccccn2)C(=S)Nc2ccccc2C)cc1OC | inconclusive: 28.2 µM [inhibitor, partial curve, poor fit]
CCCCCNc1nc2sc3c(c2c(=O)n1-c1cccc(Cl)c1)CCN(C)C3 | inconclusive: 22.4 µM [inhibitor, partial curve]
O=C(Oc1ccc2ccc(O)cc2c1)C1CCCCC1 | inconclusive: 35.5 µM [inhibitor, partial curve]
CCCCC(CC)CNC(=O)CCCc1nnc2n(CCC)c(=O)c3sccc3n12 (centres undefined) | inconclusive: 20 µM [inhibitor, partial curve]
CC(CC1C(C#N)=C(N)SC(N)=C1C#N)c1ccccc1 (centres undefined) | inconclusive: 35.5 µM [inhibitor, partial curve]
Cc1ccc(CC(=O)N2CCN(c3ccc([N+](=O)[O-])cc3)CC2)cc1 | inconclusive: 31.6 µM [inhibitor, partial curve]
COc1cc2c(=O)c(C(=O)c3ccc(C)c(C)c3)cn(Cc3ccccc3)c2cc1OC | inconclusive: 3.55 µM [inhibitor, full curve]
COc1cc(NC(=O)CN2c3cccc4cccc(c34)S2(=O)=O)cc(OC)c1OC | inactive
CCCC(=O)N1CCN(c2ccc([N+](=O)[O-])c(NC(C)c3ccccc3)c2)CC1 (centres undefined) | inconclusive: 31.6 µM [inhibitor, partial curve]
O=S(=O)(Nc1ccc(F)c(C(F)(F)F)c1)c1ccc(N2CCCCS2(=O)=O)cc1 | inconclusive: 11.2 µM [inhibitor, single point]
COc1ccc(CC(=O)Nc2ccc3c(c2)CCC3)cc1S(=O)(=O)N1CCOCC1 | inconclusive: 39.8 µM [inhibitor, single point]
CCCN(CCC)C1=CC(=[N+]2CCCC2)CC(C)(C)C1 | inactive
Cc1cccc(NC(=O)c2ccc3ccccc3n2)c1C | inconclusive: 25.1 µM [inhibitor, partial curve]
O=C(O)c1cc2ccccc2c(N=Nc2cccnc2)c1O | inactive
